The text below walks through data of PMC5836133.

Some of the results follow. At the low end of the ranking, values are background and their order means little.

The assay deals with T1, GST-NbGlk1(82-244).
T1 sequence: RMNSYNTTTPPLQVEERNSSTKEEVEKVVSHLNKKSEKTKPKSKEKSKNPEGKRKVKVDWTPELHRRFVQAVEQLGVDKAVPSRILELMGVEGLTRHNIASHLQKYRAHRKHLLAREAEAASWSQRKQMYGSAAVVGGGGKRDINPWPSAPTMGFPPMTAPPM
Briefly: protein-binding microarray.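 Also: rank-based score ranging −0.5 to +0.5 with E above 0.45 taken as significant binding.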 The following applies: NbGlk1 is a Golden2-like transcription factor of Nicotiana benthamiana; high values mean tight binding; most listed sequences are background and not binding sites; double strand, one strand shown.
ACGCGATG: the binding signal stood at 0.0544 E-score.
In the case of CAAAGGAG it was -0.115 E-score; in that of ACACCGTG, -0.226 E-score.
Regarding ACGGACCA, the binding signal was -0.24 E-score.
In the case of ACACTGAA it was 0.0195 E-score; in that of ATACGGCG, 0.101 E-score; in that of AGAGCGGG, -0.171 E-score.
For ACCAGACA, the binding signal was -0.191 E-score.
As for AAGTACTT, the binding signal amounted to 0.124 E-score.
In the case of AGGAGCTG it was -0.18 E-score.
For the sequence ATTACCAA, the binding signal worked out at 0.314 E-score.
Under AGGACATA stands 0.00644 E-score; under ACAACTTG, -0.0194 E-score; under ACCAATAG, -0.119 E-score.
In the case of CACAACTG it was -0.0288 E-score.
Sequence AACGGCGA showed a binding signal of 0.00444 E-score.
In the case of AAACATAA, the binding signal stood at 0.143 E-score.
As to AATTTCCT, the binding signal stood at 0.255 E-score.
The sequence AGTAGATA had a binding signal of 0.303 E-score.
Consider AAACATCG, for which the binding signal came out at 0.0606 E-score.
Regarding AAATGTAG, the binding signal is 0.0195 E-score.
Turning to AATCTTAA, the binding signal turned out to be 0.411 E-score.
As for AAGAGTCT, the binding signal was -0.287 E-score.
For the sequence ACGGAACG, the binding signal was -0.157 E-score.
On to AGCCAGTA, for which the binding signal was -0.099 E-score.
Turning to CACGTTGG, the binding signal was -0.288 E-score.
With ATGCCGAC, the binding signal is -0.154 E-score.
For the sequence ACCTTCCC, the binding signal is -0.216 E-score.
Take ACCGTAGG: the binding signal was -0.0617 E-score.
On to ATGAGCTC, for which the binding signal is -0.257 E-score.
The sequence AGCAATAT returned a binding signal of 0.299 E-score.
Under AATCTTGC stands 0.348 E-score; under AGCGGTGG, -0.152 E-score; under AGTCATGG, -0.141 E-score.
The sequence ACAAGCGA had a binding signal of 0.112 E-score.
For the sequence ACCGTAGC, the binding signal was -0.186 E-score.
Under AGATTGCC stands 0.448 E-score; under AGTGGTGA, 0.0524 E-score; under AGCTGAAG, -0.193 E-score.
ACACCAGA returned a binding signal of 0.0913 E-score.
In the case of AGTCAAGG, the binding signal was -0.224 E-score.
Take AGAAAAAC: the binding signal is -0.019 E-score.
Consider ACTTCTGA, for which the binding signal was determined as 0.122 E-score.
In the case of ACGGACTC it was -0.258 E-score; in that of AAGGGGCG, -0.223 E-score.
For ACCTCGGA, the binding signal is -0.0862 E-score.
ATTACAGG showed a binding signal of 0.138 E-score.
As to ACCCATCG, the binding signal is -0.0461 E-score.
Regarding AAGGCTGG, the binding signal was -0.24 E-score.
For AGAAGTGC, the binding signal is -0.176 E-score.
Take AGACAACT: the binding signal is -0.174 E-score.
In the case of AACACGCG, the binding signal was -0.105 E-score.
Under ACACAGGA stands -0.031 E-score.
In the case of ACATAAGT, the binding signal is -0.0922 E-score.
For the sequence AGTGTGTC, the binding signal is -0.0677 E-score.
Sequence AGTGCAAG returned a binding signal of 0.125 E-score.
ACGGCCCT: the binding signal was -0.159 E-score.
In the case of AACTTACC it was -0.0322 E-score; in that of AGTCGCTA, -0.0535 E-score.
Consider AAGCAGGG, for which the binding signal was -0.165 E-score.
In the case of AGGCCGCA, the binding signal is -0.259 E-score.
AATCCGTA displayed a binding signal of 0.337 E-score.
In the case of AGTTGATA, the binding signal was 0.158 E-score.
Under ACAGGCGC stands -0.187 E-score; under AAGTCATA, 0.018 E-score; under CAATGTAC, -0.0483 E-score.
As to ACGGTAAC, the binding signal was -0.0942 E-score.
Under CAGCGATA stands 0.0548 E-score; under CACAGTGG, -0.166 E-score.
On to AGCGGGTG, for which the binding signal was -0.127 E-score.
ACAGCGAC: the binding signal is -0.185 E-score.
ATTGATTG: the binding signal stood at 0.133 E-score.
For AATAAAAA, the binding signal was 0.247 E-score.
For ACTCGACT, the binding signal is -0.0799 E-score.
Turning to AACTAGTG, the binding signal is -0.164 E-score.
Under AATGTTGT stands 0.0611 E-score; under ACCAGTCA, -0.27 E-score; under AAGCCCAT, -0.128 E-score.
On to ATAGAAGG, for which the binding signal was -0.161 E-score.
CACACACA yielded a binding signal of 0.0162 E-score.
Under ATGGAAAA stands 0.0125 E-score; under ACTCATCA, -0.0329 E-score.
Consider AGGCCGCG, for which the binding signal is -0.187 E-score.
Consider AGGGGTCC, for which the binding signal was -0.322 E-score.
With AAACGTCA, the binding signal was -0.00469 E-score.
Under AGATCACC stands 0.157 E-score; under ATGCAGTC, -0.25 E-score.
In turn, ATCAGTAA displayed a binding signal of 0.214 E-score.
Take AAGCTCGA: the binding signal is -0.203 E-score.
Consider ACTAGCCT, for which the binding signal is -0.175 E-score.
Under ATTACAGA stands 0.295 E-score; under AAGTTGTG, -0.0923 E-score.
Under AAGTCGCC stands -0.285 E-score; under ATACGTCC, 0.0273 E-score; under AACAATTC, 0.147 E-score.
On to ACATCGGG, for which the binding signal is -0.0452 E-score.
Take AACGAACG: the binding signal was -0.0266 E-score.
As to ACATAACA, the binding signal is -0.0944 E-score.
As to ACTCACTG, the binding signal was -0.185 E-score.
On to AACGTTCC, for which the binding signal was -0.0248 E-score.
Turning to AGTATCTC, the binding signal is 0.235 E-score.
As to ACAATATC, the binding signal came out at 0.387 E-score.
In the case of AGATCACT it was 0.0722 E-score; in that of ACTGTGAA, 0.0939 E-score; in that of CAATCGGA, 0.227 E-score.
For the sequence AAGGACCG, the binding signal is -0.247 E-score.
Take AAGACCAC: the binding signal was -0.235 E-score.
Regarding ACGACCAC, the binding signal was -0.236 E-score.
In the case of ATCTGGCA it was 0.162 E-score; in that of AATAGGAG, -0.0605 E-score; in that of AAACAGAA, 0.0793 E-score.
Under AAGAAAGG stands -0.109 E-score; under AAGCCTAC, -0.139 E-score.
Take AGCATAAC: the binding signal was -0.107 E-score.
For AAGCTAAC, the binding signal was -0.32 E-score.
In the case of ACTAAAAG, the binding signal was determined as 0.0652 E-score.
In the case of AAGAAGCG it was -0.068 E-score; in that of CAACAACG, -0.00126 E-score.
AAAAAACG registered a binding signal of 0.0946 E-score.
The sequence ATAGATTA gave a binding signal of 0.339 E-score.
On to AGCACACA, for which the binding signal is -0.127 E-score.
Take ACGCTGAA: the binding signal came to 0.00381 E-score.
In turn, ATCAACAG came in with a binding signal of 0.104 E-score.
As for AACTGCTT, the binding signal was -0.00326 E-score.
For ACGCGAGT, the binding signal is -0.192 E-score.
Take ACCCTAGG: the binding signal stood at 0.0265 E-score.
For the sequence CACTGCAA, the binding signal is 0.121 E-score.
Turning to AATCCAAA, the binding signal came to 0.413 E-score.
On to AACATGCT, for which the binding signal was -0.232 E-score.
In the case of ACTGTGGA it was -0.141 E-score.
Sequence ATTGTTCC gave a binding signal of 0.122 E-score.
In the case of CACTCGCC, the binding signal is -0.27 E-score.
Under AGGTCCCA stands -0.257 E-score.
CAAACAAG displayed a binding signal of 0.0777 E-score.
Regarding ACGAAAAA, the binding signal came to 0.173 E-score.
Take AACTTGAG: the binding signal was -0.0443 E-score.
In the case of AATAGCAA, the binding signal came to 0.171 E-score.
On to ACCTGTAC, for which the binding signal was -0.133 E-score.
In the case of AGACTTAG it was -0.156 E-score.
AGGGTGGG: the binding signal is -0.118 E-score.
Regarding ATTGATGC, the binding signal is -0.0268 E-score.
Sequence AATGATTC registered a binding signal of 0.22 E-score.
ACAGGATC yielded a binding signal of 0.294 E-score.
Take ACCGAAAG: the binding signal was -0.0579 E-score.
ATCACAGG showed a binding signal of 0.0355 E-score.
Regarding CACGAACA, the binding signal is -0.155 E-score.
Under AACGCGAT stands 0.341 E-score; under AGTGCACT, 0.0166 E-score; under CAAGCCTG, -0.192 E-score.
In the case of ATGGCATG it was -0.15 E-score; in that of AATAACCC, -0.0131 E-score.
In the case of ATATTCCA it was 0.326 E-score; in that of CAACTGGC, -0.19 E-score.
CAAGACTG: the binding signal is -0.0608 E-score.
For AGCAGGTC, the binding signal is -0.268 E-score.
Consider ACGACTGA, for which the binding signal is -0.0474 E-score.
Turning to CACGGCCC, the binding signal was -0.214 E-score.
Turning to AAGCGCTG, the binding signal was -0.203 E-score.
Sequence ATTAATAC had a binding signal of 0.124 E-score.
Turning to AATAAGCA, the binding signal is 0.0311 E-score.
ATGATAAC had a binding signal of 0.00912 E-score.
As to AAGGAAAG, the binding signal was -0.312 E-score.
As to CACGCCGG, the binding signal is -0.196 E-score.
For the sequence ACAGCCGA, the binding signal is -0.0829 E-score.
Sequence AGATGATC came in with a binding signal of 0.115 E-score.
Under ATTCATTC stands 0.0982 E-score; under AGGAGTAA, -0.0375 E-score.
Under ATTGCGAC stands 0.346 E-score; under AAGTACCC, -0.182 E-score; under ATGAATAC, 0.0592 E-score.
For the sequence AGCACCGC, the binding signal was -0.137 E-score.
In the case of AACAGCCT, the binding signal is -0.237 E-score.
